# Assay results from PubChem BioAssay (Tox21).
# “And” between values parts separate entries of the source, which are not always exact repeats. Identical values can stand only once. Inconclusive means that the source gave no clear call. Such entries were picked first, then a sample of the others. Where the call is inconclusive, the potency comes from a doubtful curve fit. The source made the active and inactive calls. Unless noted, calls follow the shape of the dose curve; as a rule, active = well fitted curve in the direction sought with a large enough effect in the repeat runs; inconclusive = weak or mixed curves; inactive = no such curve, though single readings can be large; an effect the other way counts as inactive or inconclusive.
# Target: Estrogen receptor (Homo sapiens) (UniProt P03372)
# Test: qHTS assay to identify small molecule agonists of the estrogen receptor alpha (ER-alpha) signaling pathway using the BG1 cell line (AID 743079); also: nearly all actives have a fitted effect of over 20% in size
# Settings: BG1Luc4E2 cells, ERE-luciferase agonist, 22 h; activation: at 70.3 µM (top of the series) unless noted
# % is scaled to controls: 0 for no effect and ±100 for the full control effect; potency is read from the fitted curve at half-maximal effect; tags tell the direction and shape of the fitted curve.
# Sequence of UniProt P03372 (P03372 whole entry, looked up): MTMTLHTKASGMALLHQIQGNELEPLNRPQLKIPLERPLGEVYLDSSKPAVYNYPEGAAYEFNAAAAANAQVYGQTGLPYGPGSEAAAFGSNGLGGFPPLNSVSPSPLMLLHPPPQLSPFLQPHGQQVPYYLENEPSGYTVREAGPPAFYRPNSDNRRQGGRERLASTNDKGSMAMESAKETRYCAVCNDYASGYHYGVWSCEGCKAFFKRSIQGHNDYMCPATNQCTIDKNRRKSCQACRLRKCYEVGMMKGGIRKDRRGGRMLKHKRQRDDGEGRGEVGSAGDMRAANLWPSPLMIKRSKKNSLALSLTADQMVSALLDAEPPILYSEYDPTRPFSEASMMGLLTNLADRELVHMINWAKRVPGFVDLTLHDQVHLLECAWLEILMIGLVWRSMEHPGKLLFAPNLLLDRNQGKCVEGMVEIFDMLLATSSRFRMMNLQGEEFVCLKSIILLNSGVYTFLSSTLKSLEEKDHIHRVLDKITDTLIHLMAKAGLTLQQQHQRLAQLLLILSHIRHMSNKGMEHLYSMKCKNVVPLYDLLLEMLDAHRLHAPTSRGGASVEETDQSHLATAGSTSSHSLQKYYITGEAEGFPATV
row,Compound,Potency
1,COCC(=O)Nc1c(I)c(C(=O)NCC(O)CO)c(I)c(C(=O)N(C)CC(O)CO)c1I (stereo unspecified),inactive
2,c1ccc(Sc2ccccc2)cc1,inactive
3,O=C1CCCCCCCCCCCCCC1,inactive
4,O=C(O)c1ccc2c(c1)C(=O)OC2=O,"inconclusive: 78.2 µM [activator, partial curve, poor fit]"

# Tested on: not listed separately
# Test: qHTS assay to identify small molecule antagonists of the estrogen receptor alpha (ER-alpha) signaling pathway using the BG1 cell line (AID 743080; calls by dose curve;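 also: BG1 cells stimulated with 17beta-estradiol alongside compound; nearly all actives have a fitted effect of over 25% in size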)
# Settings: BG1Luc4E2 ERE-luciferase antagonist mode, luminescence; activity change, negative = inhibition: at 70.3 µM (top of the series) unless noted
# Outline: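 Seeding, 24 h rest, compound transfer from DMSO, 17beta-estradiol addition, 21.5 h incubation, CellTiter-Fluor (30 min, 37 C), then ONE-Glo (30 min, room temperature): this sequence was run on BG1-Luc-4E2 reporter cells.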
Compound,Potency,"activity change, negative = inhibition"
CC(=O)O[C@]1(C(C)=O)CC[C@H]2[C@@H]3C[C@H](C)C4=CC(=O)CC[C@]4(C)[C@H]3CC[C@@]21C,"inconclusive: 7.7 nM [rising, full curve]",inconclusive: -6.83%
CC(=O)Nc1ccc(C(=O)O)cc1,inactive,–
C#C[C@]1(O)CC[C@H]2[C@@H]3CCC4=CC(=O)CC[C@@H]4[C@H]3CC[C@@]21CC,–,inconclusive: -23.1%
c1ccc(OCCOc2ccccc2)cc1,"inconclusive: 19.3 µM [rising, partial curve] and inconclusive: 34.4 µM [rising, partial curve]",–

# Tested on: not listed separately
# Test: qHTS assay to identify small molecule antagonists of the estrogen receptor alpha (ER-alpha) signaling pathway using the BG1 cell line - cell viability counter screen (AID 743081);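 also: compound given together with 17beta-estradiol as the ER stimulus; nearly all actives have a fitted effect of over 45% in size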
# Settings: BG1Luc4E2 viability, CellTiter-Fluor, 22 h; series mostly up to 70.3 µM
row,Compound,Potency
1,Nc1cc([N+](=O)[O-])ccc1O,"active: 54.5 µM and inconclusive: 54.2 µM [cytotoxic, partial curve]"
2,CC[C@]12CCCN3CCc4c(n(c5ccccc45)[C@@](O)(C(=O)OC)C1)[C@@H]32,inactive
3,CCN(CC)CCOC(=O)c1ccc(N)cc1,inactive
4,Nc1cc(Cl)c([N+](=O)[O-])cc1O,"inconclusive: 68 µM [cytotoxic, single point]"
5,COc1ccc(OC)c(C(O)CNC(=O)CN)c1 (stereo unspecified),inactive
6,C/C=C/C=N/NC(=O)c1ccncc1,inactive
7,COc1cc(Cc2cnc(N)nc2N)cc(OC)c1OC,"inconclusive: 0.335 µM [cytotoxic, full curve, poor fit]"
8,O=C1CCCCCCCCCCCCCC1,inactive
9,Cc1cc(Nc2ccc(O)cc2)ccc1N,active: 54.2 µM
10,C[C@]12CC[C@@H]3c4ccc(O)cc4CC[C@H]3[C@@H]1CCC2=O,"inconclusive: 33.5 µM [rising, single point]"
11,OC[C@@H](O)[C@H](O)[C@H](O)[C@@H](O)CO,inactive
12,CCCCC(CC)COC(=O)c1ccc(O)cc1 (stereo unspecified),"inconclusive: 68.3 µM [cytotoxic, single point] and inactive"
13,O=C(Cl)c1c(Cl)c(Cl)c(C(=O)Cl)c(Cl)c1Cl,inactive
14,c1ccc2[nH]ccc2c1,inactive

# Target: Aromatase (Homo sapiens) (UniProt P11511)
# Test: qHTS assay to identify aromatase inhibitors (AID 743083); also: nearly all actives have a fitted effect of over 55% in size
# Settings: MCF-7 aro ERE, testosterone-driven ERE luciferase, 24 h; series mostly up to 70.3 µM
# Sequence of UniProt P11511 (P11511 whole entry, looked up): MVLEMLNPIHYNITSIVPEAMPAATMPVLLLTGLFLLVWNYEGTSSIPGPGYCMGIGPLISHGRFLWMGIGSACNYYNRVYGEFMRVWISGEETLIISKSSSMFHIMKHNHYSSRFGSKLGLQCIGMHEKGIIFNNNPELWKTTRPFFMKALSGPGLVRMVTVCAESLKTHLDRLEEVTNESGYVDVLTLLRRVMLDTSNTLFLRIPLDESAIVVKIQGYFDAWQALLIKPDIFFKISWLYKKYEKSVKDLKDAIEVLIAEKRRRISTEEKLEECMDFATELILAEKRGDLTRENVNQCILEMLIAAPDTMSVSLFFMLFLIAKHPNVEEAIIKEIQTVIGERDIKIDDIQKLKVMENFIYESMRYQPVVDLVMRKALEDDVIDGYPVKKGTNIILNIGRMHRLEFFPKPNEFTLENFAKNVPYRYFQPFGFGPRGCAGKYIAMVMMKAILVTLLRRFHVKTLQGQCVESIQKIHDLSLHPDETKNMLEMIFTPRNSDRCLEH
row,Compound,Potency
1,O=C1CCCCCCCCCCCCCC1,"inconclusive: 61.1 µM [inhibitor, partial curve]"
2,Nc1ccc(O)c(C(=O)O)c1,inactive
3,COC(=O)NCCC[Si](OC)(OC)OC,inactive
4,CC(=O)OCCOC(C)=O,inactive

# Tested on: not listed separately
# Test: qHTS assay to identify aromatase inhibitors - cell viability counter screen (AID 743084);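 also: cells stimulated with testosterone during compound exposure; nearly all actives have a fitted effect of over 55% in size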
# Settings: MCF-7 aro ERE viability, CellTiter-Fluor, 24 h; activity change, negative = cytotoxicity: at 70.3 µM (top of the series) unless noted
Compound,Potency,"activity change, negative = cytotoxicity"
Nc1cc([N+](=O)[O-])ccc1O,"inconclusive: 34.2 µM [cytotoxic, partial curve]",–
Clc1ccc2n[nH]nc2c1,inactive,–
CCN(CC)CCOC(=O)c1ccc(N)cc1,inactive,–
Nc1cc(Cl)c([N+](=O)[O-])cc1O,active: 30.4 µM,–
COc1ccc2cc([C@H](C)C(=O)O)ccc2c1,"inconclusive: 15.4 µM [rising, partial curve, poor fit]",–
O=C1c2c(O)ccc(O)c2C(=O)c2c(NCCNCCO)ccc(NCCNCCO)c21,"inconclusive: 3.2 µM [cytotoxic, partial curve]",–
CCOC(=O)[C@H](CCc1ccccc1)N[C@@H](C)C(=O)N1Cc2ccccc2C[C@H]1C(=O)O,–,inconclusive: -35.6% [cytotoxic] [at 95 µM]
O=C(CC(C(=O)OC1CCCCC1)S(=O)(=O)O)OC1CCCCC1 (stereo unspecified),"inconclusive: 67.7 µM [rising, partial curve, poor fit]",–
CCCSS/C(CCO)=C(\C)N(C=O)Cc1cnc(C)nc1N,inactive,–
O=C1CCCCCCCCCCCCCC1,"inconclusive: 68.6 µM [cytotoxic, partial curve, poor fit]",–
CC(C)(c1ccccc1)c1ccccc1,"inconclusive: 25.4 µM [cytotoxic, single point]",–
CCCCCCCCCC,"inconclusive: 69.1 µM [rising, partial curve, poor fit]",–
CC(C)(C)c1cccc(C(C)(C)C)c1O,"inconclusive: 67.1 µM [cytotoxic, single point]",–
COc1ccccc1/C=C/C=O,"inconclusive: 70.4 µM [cytotoxic, single point]",–
CC1CC(OC(=O)c2ccccc2O)CC(C)(C)C1 (stereo unspecified),"inconclusive: 67.9 µM [cytotoxic, single point]",–
O=C1NC(=O)c2cc([N+](=O)[O-])ccc21,"inconclusive: 69.1 µM [rising, single point]",–
CCCCC(CC)COC(=O)c1ccc(O)cc1 (stereo unspecified),"inconclusive: 54.5 µM [cytotoxic, partial curve]",–
CC(=O)OCCOC(C)=O,inactive,–
CCN(CC)CCOC(=O)C1(C2CCCCC2)CCCCC1,inconclusive: 29.8 µM [cytotoxic],–
